Non-standard residues stand in square brackets, D forms with d. Residues, ends and D or L forms follow the SMILES beside them. 12Ado = NCCCCCCCCCCCC(=O)O
Tested on: AA8, EMTR1, A549, K1.5, 2008, MRP1, MRP2, MRP3, HEK, MRP4 and MRP5 cell-lines
Settings: human (AA8 and EMTR1: CHO, Chinese hamster)

NCCCCCCCCCCCC(=O)N[C@@H](CCCCN)C(=O)N[C@@H](CCCCN)C(=O)NCCCCCCCCCCCC(=O)N[C@@H](CCCCN)C(=O)N[C@@H](CCCCN)C(=O)NCCCCCCCCCCCC(=O)N[C@@H](CCCCN)C(=O)N[C@@H](CCCCN)C(=O)NCCCCCCCCCCCC(=O)N[C@@H](CCCCN)C(N)=O (H-[12Ado]KK[12Ado]KK[12Ado]KK[12Ado]K-NH2)
CC50: 15 to 18 µM

Reference: patent publication US20100173832A1, “ANTICANCEROUS POLYMERIC AGENTS” (TECHNION RESEARCH & DEVELOPMENT FOUNDATION LTD., priority 2007, published 2010)
